# Legend:
# [1] = test system: grape downy mildew fungus (Plasmopara viticola); experiment: Test Example G: grape downy mildew, spray treatment of grape plants; settings: for Test G control value: grape downy mildew, 7 to 10 days after inoculation
# [2] = test system: barley powdery mildew fungi (Blumeria graminis f. sp. hordei); experiment: Test Example D: barley powdery mildew, spray treatment of barley plants; settings: for Test D control value: barley powdery mildew
# [3] = test system: wheat brown rust fungi (Puccinia recondita); experiment: Test Example E: wheat brown rust, spray treatment of wheat plants; assay type: in vivo; settings: for Test E control value: wheat brown rust
# [4] = test system: cabbage Alternaria sooty spot fungi (Alternaia brassicicola); experiment: Test Example C: cabbage Alternaria sooty spot, spray treatment of cabbage plants; assay type: in vivo; settings: for Test C control value: cabbage Alternaria sooty spot
# Excerpt: [Test Example C] Cabbage Alternaria Sooty Spot
# Test plants (cabbage variety: Shikidori) were cultivated until the cotyledons extended after the sowing of seeds.
# <Control Value> Control value=100{1−(n/3)}
# [5] = test system: gray mold fungi (Botrytis cinerea); experiment: Test Example B: tomato gray mold, spray treatment of tomato plants; settings: for Test B control value: tomato gray mold
# [6] = spray treatment of barley plants
# [7] = spray treatment of wheat plants
# [8] = spray treatment of cabbage plants
# [9] = spray treatment of tomato plants
Structure (SMILES),Test G control value ([1]; 250 ppm spray),Test D control value ([2]; spray treatment),Test E control value ([3]; spray treatment),Test C control value ([4]; spray treatment),Test B control value ([5]; spray treatment),further results
Cc1cn(-c2ccccc2)c(-c2ccccc2Cl)c(C)c1=O [Compound 575],L (L shows the control value of 50% or less),L (L shows the control value of 50% or less),H (H shows the control value of more than 50%),H (H shows the control value of more than 50%),H (H shows the control value of more than 50%),–
Cc1c(-c2ccc(F)cc2F)n(-c2ccccc2)cc(Br)c1=O [Compound 592],L (L shows the control value of 50% or less),L (L shows the control value of 50% or less),H (H shows the control value of more than 50%),H (H shows the control value of more than 50%),H (H shows the control value of more than 50%),–
Cc1ccc(C#N)cc1-n1cc(Br)c(=O)c(Cl)c1-c1c(F)cc(F)cc1F [Compound 336],–,–,–,–,–,"Test G control value ([1]; 250 ppm spray (2.5 ml/pot)): L (L shows the control value of 50% or less); Test D control value [2, 6]: L (L shows the control value of 50% or less); Test E control value [3, 7]: H (H shows the control value of more than 50%); Test C control value [4, 8]: L (L shows the control value of 50% or less); Test B control value [5, 9]: H (H shows the control value of more than 50%)"
CC1CCCCC1n1cc(Cl)c(=O)c(Br)c1-c1c(F)cc(F)cc1F (stereo not drawn) [Compound 154],–,–,–,–,–,"Test G control value class (grape downy mildew) ([1]; 250 ppm spray, 2.5 ml/pot, grape Neomuscat, 7 to 10 days from inoculation): L (L shows the control value of 50% or less); Test D control value class (barley powdery mildew) ([2]; spray treatment of barley plants, control value=100{1-(n/3)}): H (H shows the control value of more than 50%); Test E control value class (wheat brown rust) ([3]; spray treatment of wheat plants, control value=100{1-(n/3)}): H (H shows the control value of more than 50%); Test C control value class (cabbage Alternaria sooty spot) ([4]; spray treatment of cabbage plants, control value=100{1-(n/3)}): H (H shows the control value of more than 50%); Test B control value class (tomato gray mold) ([5]; spray treatment of tomato plants, control value=100{1-(n/3)}): H (H shows the control value of more than 50%)"
Cc1c(-n2cc(Cl)c(=O)c(Cl)c2-c2c(F)cc(F)cc2F)cccc1[N+](=O)[O-] [Compound 420],L (L shows the control value of 50% or less),L (L shows the control value of 50% or less),H (H shows the control value of more than 50%),H (H shows the control value of more than 50%),H (H shows the control value of more than 50%),–
O=c1c(Br)cn(-c2ccccc2)c(-c2ccccc2Cl)c1Cl [Compound 574],L (L shows the control value of 50% or less),L (L shows the control value of 50% or less),H (H shows the control value of more than 50%),H (H shows the control value of more than 50%),H (H shows the control value of more than 50%),–
CCc1c(-c2ccccc2)n(-c2cccc(Cl)c2C)cc(Br)c1=O [Compound 506],L (L shows the control value of 50% or less),H (H shows the control value of more than 50%),H (H shows the control value of more than 50%),H (H shows the control value of more than 50%),H (H shows the control value of more than 50%),–
Cc1cccc(F)c1-n1cc(Cl)c(=O)c(Cl)c1-c1ccc(F)cc1 [Compound 369],–,–,–,–,–,"Test G control value ([1]; 250 ppm spray (2.5 ml/pot)): H (H shows the control value of more than 50%); Test D control value [2, 6]: L (L shows the control value of 50% or less); Test E control value [3, 7]: H (H shows the control value of more than 50%); Test C control value [4, 8]: L (L shows the control value of 50% or less); Test B control value [5, 9]: H (H shows the control value of more than 50%)"
CCc1ccc(OC)cc1-n1cc(C)c(=O)c(C)c1-c1c(F)cccc1F [Compound 617],H (H shows the control value of more than 50%),H (H shows the control value of more than 50%),H (H shows the control value of more than 50%),H (H shows the control value of more than 50%),H (H shows the control value of more than 50%),–
